Results reported in ChEMBL document CHEMBL1201862, “PubChem BioAssay data set” (2004).
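Results reflect a 48-hour exposure of cells in 96-well plates to compound at five concentrations. GI50 marks 50% less growth.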 The source made the active and inactive calls. No stated cut-off is given here; in the data, active = GI50 up to about 1.1 µM and inactive = higher.

system: NCI-H322M; experiment: NCI anticancer screen, dose series, 48 h

Row | SMILES | GI50
1 | CC1(C)C2CCC1(CS(=O)(=O)Nc1ccccc1)C(=O)C2 (stereo unspecified) | inactive: > 100 µM
2 | COc1cc(Cc2ccc3c(c2C#N)N(C)c2ccccc2S3)cc(OC)c1OC | inactive: > 100 µM
3 | COC(=O)C(N)CCCC(N)C(=O)NC(C)C(=O)NC(CCC(=O)NCCNCCNc1c2ccccc2nc2cccc([N+](=O)[O-])c12)C(N)=O (stereo unspecified) | inactive: 18 µM
4 | Cc1ccc(S(=O)(=O)N(c2ccccc2F)C2CCCCC2O)cc1 (stereo unspecified) | inactive: 66.5 µM
5 | O=C1c2c(O)ccc(O)c2C(=O)c2c(NCCNC(=O)C(O)C(O)C(O)C(O)CO)ccc(NCCNC(=O)C(O)C(O)C(O)C(O)CO)c21 (stereo unspecified) | active: 0.114 µM
6 | Cc1cc(-c2ccccc2)nc(Nc2nc3ccccc3o2)n1 | inactive: > 100 µM
7 | C=CC(C)(O)CCC1C(=C)C(O)CC2C(C)(C)CCCC12C (stereo unspecified) | inactive: 21.3 µM
8 | Cc1ccc(S(=O)OC2C3CC4CC(C3)CC2C4)cc1 (stereo unspecified) | inactive: > 100 µM
9 | O=C1CC(c2n[nH]c3ccccc23)C(=O)N1c1ccccc1 (stereo unspecified) | inactive: > 100 µM
10 | Cc1ccc(S(=O)(=O)C2=Cc3ccc(C(F)(F)F)cc3C2(O)c2cccc(C(F)(F)F)c2)cc1 (stereo unspecified) | inactive: 4.16 µM
11 | O=C1c2ccccc2C(=O)c2c(O)c(O)cc(O)c21 [PURPURIN] | inactive: 43.6 µM
12 | CCOC(=O)NC(NCC(O)c1ccccc1)(C(F)(F)F)C(F)(F)F (stereo unspecified) | inactive: > 100 µM
13 | O=C(NCCCCCCCCNC(=O)c1cc(-c2ccccc2)nc2ccccc12)c1cc(-c2ccccc2)nc2ccccc12 | inactive: > 100 µM
14 | COc1ccc(C(=O)C(CO)Oc2ccccc2OC)cc1OC (stereo unspecified) | inactive: > 100 µM
15 | CC(C)C(C(=O)O)N1C(=O)c2ccccc2C1=O (stereo unspecified) | inactive: > 100 µM
16 | Oc1nc2c(c(-c3cccc(Cl)c3)n1)COC/C2=C\c1cccc(Cl)c1 | inactive: > 100 µM
17 | COc1ccc([C@@]23Oc4cc(OC)cc(OC)c4[C@]2(O)[C@H](O)[C@H](C(=O)N(C)C)[C@H]3c2ccccc2)cc1 [ROCAGLAMIDE] | active: 0.00973 µM
18 | COC1CCC2C(NS(=O)(=O)c3ccc(C)cc3)CCCC2O1.Cc1ccc(S(=O)(=O)NC(C)(C)C=O)cc1 (stereo unspecified) | inactive: 16.4 µM

Row | SMILES | GI50
19 | COc1ccc2nc3cc(Cl)ccc3c(NCCCNCc3cc(OC)c(OC)c(OC)c3)c2c1 | inactive: 1.52 µM
20 | COc1c(CC(=O)c2ccccc2)c2ccccc2n1C(C)=O | inactive: > 100 µM
21 | CN1CSC(=S)N(c2c3ccccc3nc3ccc(Br)cc23)C1 | inactive: 7.35 µM
22 | C(=N\Nc1ccccc1)/c1nc2ccccc2nc1/C=N/Nc1ccccc1 | inactive: 17.4 µM
23 | Cc1nc2c(N3CCCC3)nc(N3CCNCC3)nc2nc1NCc1ccccc1 | inactive: 5.27 µM
24 | CCC1(CC)C(=O)N(C(=O)c2ccc(Cl)cc2)N(C(=O)c2ccccc2Cl)C1=O | inactive: > 100 µM
25 | Nc1nn2c(=O)c3ccccc3nc2s1 | inactive: > 100 µM
26 | COC(=O)C(=O)C(C(C)=O)C(=O)C(=O)Nc1ccc(C)cc1C (stereo unspecified) | inactive: > 100 µM
27 | CC1=CC(C)C(C)N(CC2=NCCN2)c2ccccc21 (stereo unspecified) | inactive: 52.6 µM
28 | Cc1c(Cl)c(S(N)(=O)=O)cc2c1N=CNS2(=O)=O | inactive: > 100 µM
29 | NCCNc1ccc(NCCN)c2c1C(=O)c1c(O)ccc(O)c1C2=O | active: 0.192 µM
30 | CC(=O)OC1COC(n2ccc3cc(Br)c([N+](=O)[O-])cc32)C(OC(C)=O)C1OC(C)=O (stereo unspecified) | inactive: 38.7 µM
31 | CCCCN(CCCC)C(=O)/C(CC(=O)c1cccc2ccccc12)=N\NC(=O)c1cc2ccccc2cc1O | inactive: 22.8 µM
32 | COc1cc2c(cc1OC)C(=O)N(c1ccc(O)cc1)C2=O | inactive: > 100 µM
33 | Sc1ncnc2c1ncn2C1CCCO1 (stereo unspecified) | inactive: > 100 µM
34 | Cc1cc(-c2nc3c(F)cccc3s2)ccc1N | inactive: 23.2 µM
35 | O=c1cc(CO)oc2c3c(cc(O)c12)OCC(COC1OC(CO)C(O)C(O)C1O)=CC3 (stereo unspecified) | inactive: > 100 µM
36 | Cc1cccc(C(C)(C)C)c1NC(=O)/C(Cc1nc2ccc([N+](=O)[O-])cc2nc1O)=N\NC(=O)C[N+](C)(C)C | inactive: > 100 µM
